From publication PMC4336329 (PLoS ONE, 2015)
Among all 310,000 compounds or so, about 2,200 (0.71%) showed an effect of 50% or more. Effects have a minus sign here. Some of the results follow.

target: human ether-à-go-go-related gene (hERG) potassium channel (human, UniProt Q12809); assay: primary screen, population patch clamp on CHO cells stably expressing hERG
Sequence (Q12809 whole entry, looked up): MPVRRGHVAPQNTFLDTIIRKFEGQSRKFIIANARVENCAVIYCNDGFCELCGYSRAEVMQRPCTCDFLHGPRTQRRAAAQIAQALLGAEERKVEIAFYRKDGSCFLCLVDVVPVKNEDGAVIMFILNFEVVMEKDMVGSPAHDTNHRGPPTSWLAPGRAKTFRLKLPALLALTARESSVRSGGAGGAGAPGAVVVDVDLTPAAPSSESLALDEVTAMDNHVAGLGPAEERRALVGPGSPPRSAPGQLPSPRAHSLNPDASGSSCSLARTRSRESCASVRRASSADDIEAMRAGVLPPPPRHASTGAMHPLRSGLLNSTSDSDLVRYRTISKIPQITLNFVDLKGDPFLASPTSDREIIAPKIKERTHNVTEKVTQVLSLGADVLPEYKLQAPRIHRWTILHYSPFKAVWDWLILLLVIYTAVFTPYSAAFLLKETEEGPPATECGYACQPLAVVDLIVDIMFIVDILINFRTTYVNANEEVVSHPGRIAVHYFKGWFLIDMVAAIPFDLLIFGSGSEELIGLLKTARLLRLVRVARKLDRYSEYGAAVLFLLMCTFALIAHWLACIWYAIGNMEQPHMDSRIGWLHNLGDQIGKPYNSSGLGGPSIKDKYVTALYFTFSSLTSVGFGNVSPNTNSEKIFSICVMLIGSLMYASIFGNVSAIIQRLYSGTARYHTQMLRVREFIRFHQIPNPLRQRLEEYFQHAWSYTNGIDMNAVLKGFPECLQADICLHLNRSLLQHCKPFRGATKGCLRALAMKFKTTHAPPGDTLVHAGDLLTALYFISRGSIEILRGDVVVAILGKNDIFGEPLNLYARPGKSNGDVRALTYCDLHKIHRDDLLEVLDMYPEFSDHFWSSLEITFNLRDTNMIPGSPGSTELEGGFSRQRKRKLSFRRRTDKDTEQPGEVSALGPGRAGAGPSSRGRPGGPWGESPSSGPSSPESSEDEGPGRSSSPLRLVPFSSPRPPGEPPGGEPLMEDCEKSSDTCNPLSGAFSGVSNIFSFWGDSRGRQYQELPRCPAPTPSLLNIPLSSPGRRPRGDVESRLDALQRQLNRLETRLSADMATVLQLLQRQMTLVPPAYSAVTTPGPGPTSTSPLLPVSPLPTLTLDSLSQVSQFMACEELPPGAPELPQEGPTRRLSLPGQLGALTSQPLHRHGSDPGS

Q: With `CCOc1ccc(C(=O)OCC(=O)NCCCc2ccccc2)cc1` as the compound, how does the “hERG current change (%, negative = inhibition) at 1uM” value read?
A: 6.02%

Q: How did the “hERG current change (%, negative = inhibition) at 1uM” value turn out when `Cc1cc([N+](=O)[O-])nn1CC(=O)Nc1cccc2nonc12` was run?
A: 9.31%

Q: With `COc1cc(/C=C/C(=O)c2c(O)n(CCc3ccccc3)c(=O)[nH]c2=O)ccc1O` as the compound, how does the “hERG current change (%, negative = inhibition) at 1uM” value read?
A: 16.7%

Q: `COc1cccc(C(=O)NCCS(=O)(=O)N2CCC(C)CC2)c1` was tested. Which “hERG current change (%, negative = inhibition) at 1uM” value did it give?
A: 3.89%

Q: `O=C(NCc1ccc2c(c1)OCO2)c1ccc2c(c1)OCCO2` was tested. Which “hERG current change (%, negative = inhibition) at 1uM” value did it give?
A: 10.5%

Q: How did the “hERG current change (%, negative = inhibition) at 1uM” value turn out when `NC(=O)c1cc(S(=O)(=O)N2CC=C(c3ccccc3)CC2)cs1` was run?
A: -9.46%

Q: `CCSC(C)CC1CC(=O)CC(=O)C1` (stereo not drawn) was tested. Which “hERG current change (%, negative = inhibition) at 1uM” value did it give?
A: -5.77%

Q: How did the “hERG current change (%, negative = inhibition) at 1uM” value turn out when `C/C(=N\OC(=O)c1ccc(F)cc1)c1ccc(F)c(F)c1` was run?
A: 13.1%

Q: For `Cc1oc2c(c(C)cc3oc(=O)c(CC(=O)N[C@H](C(=O)O)C(C)C)c(C)c32)c1C`, which “hERG current change (%, negative = inhibition) at 1uM” value is on record?
A: 12.6%

Q: `Cc1oc2c(C)c3oc(=O)c(CC(=O)N[C@@H](CC(C)C)C(=O)N[C@@H](Cc4ccccc4)C(=O)O)c(C)c3cc2c1C` was tested. Which “hERG current change (%, negative = inhibition) at 1uM” value did it give?
A: 12.6%

Q: Which “hERG current change (%, negative = inhibition) at 1uM” value does the source give for `COCCn1c(C)cc(C(=O)COC(=O)/C=C/c2cccc(OC)c2)c1C` here?
A: 5.98%

Q: `Cc1noc(C)c1COC(=O)CCCc1nc2ccccc2s1` was tested. Which “hERG current change (%, negative = inhibition) at 1uM” value did it give?
A: -3.79%

Q: For `O=S1(=O)CCOC[C@H](CC2CCCCC2)N1Cc1ccc(F)cc1`, which “hERG current change (%, negative = inhibition) at 1uM” value is on record?
A: 1.91%

Q: Which “hERG current change (%, negative = inhibition) at 1uM” value does the source give for `CCN1C/C(=N\S(=O)(=O)/N=C2\CN(CC)C(=O)N2CC)N(CC)C1=O` here?
A: 14.6%

Q: With `O=C(Nc1nccs1)c1ccc(CSc2ccccc2)o1` as the compound, how does the “hERG current change (%, negative = inhibition) at 1uM” value read?
A: -0.64%

Q: With `O=S(=O)(c1ccc(-c2ccon2)s1)N1CCN(CCN2CCOCC2)CC1` as the compound, how does the “hERG current change (%, negative = inhibition) at 1uM” value read?
A: 16.1%

Q: For `COc1ccc(C2c3c(oc4ccccc4c3=O)C(=O)N2c2ccccn2)cc1` (stereo not drawn), which “hERG current change (%, negative = inhibition) at 1uM” value is on record?
A: 7.17%

Q: How did the “hERG current change (%, negative = inhibition) at 1uM” value turn out when `O=C(Cn1cnc2ccccc2c1=O)c1c[nH]c2ccccc12` was run?
A: 6.38%

Q: With `COc1ccc(N=C2SC(C(=O)Nc3ccc(C(=O)O)cc3)CC(=O)N2Cc2cccs2)cc1` (stereo not drawn) as the compound, how does the “hERG current change (%, negative = inhibition) at 1uM” value read?
A: 12.1%

Q: How did the “hERG current change (%, negative = inhibition) at 1uM” value turn out when `COc1cc(C(=O)OCC(=O)NC(N)=O)cc(CN2C(=O)c3ccccc3C2=O)c1OC` was run?
A: 8.8%

Q: Which “hERG current change (%, negative = inhibition) at 1uM” value does the source give for `CC(C)N(C(=O)CSc1nnnn1-c1ccc2c(c1)OCO2)C(C)C` here?
A: 10.6%

Q: For `Cc1ccc(SCC(=O)Nc2cccc(C(=O)NC(C)(C)C)c2)cc1`, which “hERG current change (%, negative = inhibition) at 1uM” value is on record?
A: 12.4%

Q: With `CCC(/C=N/Nc1ccc(S(=O)(=O)N2CCCC2)cc1[N+](=O)[O-])CC` as the compound, how does the “hERG current change (%, negative = inhibition) at 1uM” value read?
A: 7.74%

Q: Which “hERG current change (%, negative = inhibition) at 1uM” value does the source give for `Cc1ccc(C)c(C(=O)OCC(=O)N(C)c2ccccc2)c1` here?
A: 12.2%

Q: Which “hERG current change (%, negative = inhibition) at 1uM” value does the source give for `O=C(COC(=O)c1cccc2ccccc12)NCC1CCCO1` (stereo not drawn) here?
A: 11.6%

Q: For `CC(NC(=O)c1c(O)c2ccccc2n(C)c1=O)c1ccccc1` (stereo not drawn), which “hERG current change (%, negative = inhibition) at 1uM” value is on record?
A: 6.56%

Q: Which “hERG current change (%, negative = inhibition) at 1uM” value does the source give for `CC[C@H](C)[C@H]1O[C@]2(CC[C@@H]1C)C[C@@H]1C[C@@H](CC=C(C)[C@@H](O[C@H]3C[C@H](OC)[C@@H](O[C@H]4C[C@H](OC)[C@@H](O)[C@H](C)O4)[C@H](C)O3)[C@@H](C)C=CC=C3CO[C@@H]4[C@H](O)C(C)=C[C@@H](C(=O)O1)[C@]34O)O2` here?
A: 5.97%

Q: How did the “hERG current change (%, negative = inhibition) at 1uM” value turn out when `O=C1NC(Cc2ccccc2)C(=O)Nc2ccc(Br)cc21` (stereo not drawn) was run?
A: 5.81%

Q: Which “hERG current change (%, negative = inhibition) at 1uM” value does the source give for `O=c1[nH]c(O)c(/C=C2/C=CC(c3cc(Cl)ccc3Cl)=N2)c(=O)[nH]1` here?
A: 11.9%

Q: How did the “hERG current change (%, negative = inhibition) at 1uM” value turn out when `Cn1c2ccccc2c(=O)c2ccc(C#Cc3ccccn3)cc21` was run?
A: 12.3%

Q: `CCc1nc2ccccc2c(NC(=O)CN2CC(C)CC(C)C2)c1C` (stereo not drawn) was tested. Which “hERG current change (%, negative = inhibition) at 1uM” value did it give?
A: 8%

Q: How did the “hERG current change (%, negative = inhibition) at 1uM” value turn out when `COc1ccccc1NC(=O)C(=O)N(c1cccnc1)C(C(=O)NC(C)(C)C)c1ccccc1F` (stereo not drawn) was run?
A: 17%

Q: `S=C(Nc1ccc(Cl)cc1)N1CCN(Cc2ccccc2)CC1` was tested. Which “hERG current change (%, negative = inhibition) at 1uM” value did it give?
A: 11.1%

Q: How did the “hERG current change (%, negative = inhibition) at 1uM” value turn out when `CCOC(=O)c1cc2c(=O)n3cccc(C)c3nc2n(Cc2ccco2)c1=NC(=O)c1ccccc1` was run?
A: 0.671%

Q: How did the “hERG current change (%, negative = inhibition) at 1uM” value turn out when `Cc1ccc(NC(=O)N[C@@H](CC(C)C)C(=O)O)c(C)c1` was run?
A: 17.7%

Q: How did the “hERG current change (%, negative = inhibition) at 1uM” value turn out when `CN1C(=O)C(O)(CC(=O)c2cccc(-n3cccc3)c2)c2ccccc21` (stereo not drawn) was run?
A: 6.67%

Q: With `Cc1ccc(-c2cc(C(F)F)nc(S(C)(=O)=O)n2)cc1` as the compound, how does the “hERG current change (%, negative = inhibition) at 1uM” value read?
A: 5.34%

Q: Which “hERG current change (%, negative = inhibition) at 1uM” value does the source give for `Cc1ccccc1C(=O)NC(CC(C)C)C(=O)Nc1ccc(S(N)(=O)=O)cc1` (stereo not drawn) here?
A: 14.5%

Q: For `O=C(NCc1ccccc1)C1=C[C@H](c2ccc(C(F)(F)F)cc2)C[C@H](OCc2ccc(CO)cc2)O1`, which “hERG current change (%, negative = inhibition) at 1uM” value is on record?
A: 14.3%

Q: `CCOC(=O)c1cccc(NC(=O)CCc2nc(-c3ccccc3F)no2)c1` was tested. Which “hERG current change (%, negative = inhibition) at 1uM” value did it give?
A: 5.83%

Q: How did the “hERG current change (%, negative = inhibition) at 1uM” value turn out when `COC(=O)C(CCSC)NC(=O)/C=C/c1ccc(OC)cc1` (stereo not drawn) was run?
A: 13.1%

Q: For `CC(NC1CCN(Cc2ccccc2)CC1)c1ccc(F)cc1` (stereo not drawn), which “hERG current change (%, negative = inhibition) at 1uM” value is on record?
A: 16.2%

Q: How did the “hERG current change (%, negative = inhibition) at 1uM” value turn out when `COc1ccc(NC(=O)c2ccc(CN3CCN(c4ccccc4)CC3)cc2)cc1` was run?
A: 3.45%

Q: `COc1ccc(NC(=O)C2CCC(C(C)(C)C)CC2)cc1S(=O)(=O)N1CCCCC1` (stereo not drawn) was tested. Which “hERG current change (%, negative = inhibition) at 1uM” value did it give?
A: 7.25%

Q: `COc1ccc(C2Oc3ccccc3N2C(C)=O)cc1` (stereo not drawn) was tested. Which “hERG current change (%, negative = inhibition) at 1uM” value did it give?
A: -3.32%

Q: Which “hERG current change (%, negative = inhibition) at 1uM” value does the source give for `CN(CC(=O)Nc1ccc(F)cc1)C(=O)c1ccc(N2C(=O)CCC2=O)cc1` here?
A: -0.164%

Q: How did the “hERG current change (%, negative = inhibition) at 1uM” value turn out when `O=C(NCc1ccco1)c1ccccc1O` was run?
A: 13.7%

Q: How did the “hERG current change (%, negative = inhibition) at 1uM” value turn out when `O=C(COC(=O)c1ccccc1-n1cnnn1)c1ccc(F)cc1` was run?
A: -1.13%

Q: For `Cc1cc(C)c2ccc3c(C)c(C)nc3c2[nH]1`, which “hERG current change (%, negative = inhibition) at 1uM” value is on record?
A: 7.15%

Q: How did the “hERG current change (%, negative = inhibition) at 1uM” value turn out when `Cc1cc(C)c(S(=O)(=O)NCCSCc2ccco2)c(C)c1` was run?
A: 14.6%

Q: With `CCOc1ccccc1N` as the compound, how does the “hERG current change (%, negative = inhibition) at 1uM” value read?
A: 7.5%

Q: With `COc1ccc(-n2c(SCCC#N)nnc2-c2cc(Cl)ccc2OC)cc1Cl` as the compound, how does the “hERG current change (%, negative = inhibition) at 1uM” value read?
A: 16%

Q: `O=C(c1cc2cc(F)ccc2[nH]1)N1CCC2(CC1)OCCO2` was tested. Which “hERG current change (%, negative = inhibition) at 1uM” value did it give?
A: 9.92%

Q: `COP(=O)(OC)C(Nc1ccccn1)c1ccccc1` (stereo not drawn) was tested. Which “hERG current change (%, negative = inhibition) at 1uM” value did it give?
A: 22.7%
